Assay results taken from patent publication US20180312565A1 (Affibody, published 2018).
Where a chain is given by its changes, count along the chain named.

B1: Z13112-ABD (designed binder)
chain: AQHDEALEVDAKYAKERNAAAFEILTLPNLTNEQHWAFIWKLDDDPSQSSELLSEAKKLNDSQAPKVDYVLAEAKVLANRELDKYGVSDYYKNLINNAKTVEGVKALIDEILAALPYVPG
notes: domain: GA3
B2: Z13147-ABD (designed binder)
chain: B1 chain with A19R, F22Y, T26Q, N32H, E33Q, H35T
notes: domain: GA3
B3: Z13368-ABD (designed binder)
chain: B1 chain with F22W, T26R, N32R, E33H, H35Q, D43A
notes: domain: GA3
B4: Z13154-ABD (designed binder)
chain: B1 chain with A19D, F22Y, T26Q, N32K, E33R, H35V
notes: domain: GA3
B5: Z13198-ABD (designed binder)
chain: B1 chain with F22Y, E33K, H35R
notes: domain: GA3
B6: Z13165-ABD (designed binder)
chain: B1 chain with A19Y, F22W, T26R, N32A, E33S, H35Y
notes: domain: GA3
B7: Z13169-ABD (designed binder)
chain: B1 chain with A19R, F22Q, T26V, N32R, E33K, H35Q
notes: domain: GA3
B8: Z13304-ABD (designed binder)
chain: B1 chain with A19N, F22S, T26A, N32Q, E33L, H35Y, D43A
notes: domain: GA3
B9: Z13091-ABD (designed binder)
chain: B1 chain with A19N, T26R, E33G, D43A
notes: domain: GA3
B10: Z13115-ABD (designed binder)
chain: B1 chain with A19R, F22S, T26L, N32R, E33M, D43A
notes: domain: GA3
B11: Z13447-ABD (designed binder)
chain: B1 chain with A19Q, F22Y, L25V, T26Q, N32K, E33G, H35T
notes: domain: GA3
B12: Z13164-ABD (designed binder)
chain: B1 chain with A19N, F22Q, T26Q, N32Q, E33L, H35R
notes: domain: GA3
B13: Z13190-ABD (designed binder)
chain: B1 chain with F22E, T26D, N32A, E33G, H35M
notes: domain: GA3
B14: Z13210-ABD (designed binder)
chain: B1 chain with A19R, F22W, T26Q, N32R, E33T, H35W
notes: domain: GA3
B15: Z13158-ABD (designed binder)
chain: B1 chain with A19D, T26Q, E33S, D43E
notes: domain: GA3
B16: His6-Z13080 (designed binder)
chain: MGSSHHHHHHLQVDAKYAKERNSAAEEILHLPNLTMQQLWAFIWKLDDDPSQSSELLSEAKKLNDSQAPKVD
B17: His6-Z13120 (designed binder)
chain: B16 chain with S23R, E26N, H30Q, M36K, Q37G, L39V

target: T1, human PD-L2 Fc Chimera (R&D Systems, cat. no. 1224-PL-100) (human, UniProt Q9BQ51 20-219, biotinylated in ELISA); test: ELISA
T1 construct: bought; also called hPD-L2; not shown: Fc part of the bought Fc chimera, not described
T1 sequence (looked up): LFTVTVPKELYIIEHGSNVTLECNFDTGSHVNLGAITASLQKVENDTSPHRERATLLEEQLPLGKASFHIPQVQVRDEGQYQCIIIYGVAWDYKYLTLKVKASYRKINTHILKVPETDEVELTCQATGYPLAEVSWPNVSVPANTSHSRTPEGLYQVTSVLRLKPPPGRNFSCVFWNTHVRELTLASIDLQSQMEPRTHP

Binder	binding result
B1	no binding (tested: 8 nM)
B2	no binding (tested: 8 nM)
B3	no binding (tested: 8 nM)
B4	no binding (tested: 8 nM)
B5	no binding (tested: 8 nM)
B6	no binding (tested: 8 nM)
B7	no binding (tested: 8 nM)
B8	no binding (tested: 8 nM)
B9	no binding (tested: 8 nM)
B10	no binding (tested: 8 nM)
B11	no binding (tested: 8 nM)
B12	no binding (tested: 8 nM)
B13	no binding (tested: 8 nM)
B14	no binding (tested: 8 nM)
B15	no binding (tested: 8 nM)

target: T2, human B7-H3 Fc Chimera (R&D Systems, cat. no. 1027-B3-100) (human, UniProt Q5ZPR3-2 29-245, biotinylated in ELISA); test: ELISA
T2 construct: bought; also called hB7-H3; not shown: Fc part of the bought Fc chimera, not described
T2 sequence (looked up): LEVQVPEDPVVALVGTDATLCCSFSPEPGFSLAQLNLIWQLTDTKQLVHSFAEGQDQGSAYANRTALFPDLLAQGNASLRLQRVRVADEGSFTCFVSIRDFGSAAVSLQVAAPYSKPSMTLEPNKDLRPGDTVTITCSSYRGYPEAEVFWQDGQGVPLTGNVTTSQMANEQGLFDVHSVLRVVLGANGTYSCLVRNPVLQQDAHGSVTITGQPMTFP

Binder	binding result
B1	no binding (tested: 8 nM)
B2	no binding (tested: 8 nM)
B3	no binding (tested: 8 nM)
B4	no binding (tested: 8 nM)
B5	no binding (tested: 8 nM)
B6	no binding (tested: 8 nM)
B7	no binding (tested: 8 nM)
B8	no binding (tested: 8 nM)
B9	no binding (tested: 8 nM)
B10	no binding (tested: 8 nM)
B11	no binding (tested: 8 nM)
B12	no binding (tested: 8 nM)
B13	no binding (tested: 8 nM)
B14	no binding (tested: 8 nM)
B15	no binding (tested: 8 nM)

target: T3, human B7-H4 (R&D Systems, cat. no. 6576-B7-50) (human, UniProt Q7Z7D3 29-258, biotinylated in ELISA); test: ELISA
T3 construct: bought; also called hB7-H4
T3 sequence (looked up): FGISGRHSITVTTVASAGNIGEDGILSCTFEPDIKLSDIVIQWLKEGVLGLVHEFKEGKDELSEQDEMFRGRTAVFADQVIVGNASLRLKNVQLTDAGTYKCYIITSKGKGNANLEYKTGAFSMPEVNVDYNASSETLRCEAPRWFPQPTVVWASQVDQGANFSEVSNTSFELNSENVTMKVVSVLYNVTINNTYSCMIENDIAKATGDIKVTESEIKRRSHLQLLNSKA

Binder	binding result
B1	no binding (tested: 8 nM)
B2	no binding (tested: 8 nM)
B3	no binding (tested: 8 nM)
B4	no binding (tested: 8 nM)
B5	no binding (tested: 8 nM)
B7	no binding (tested: 8 nM)
B8	no binding (tested: 8 nM)
B9	no binding (tested: 8 nM)
B10	no binding (tested: 8 nM)
B11	no binding (tested: 8 nM)
B12	no binding (tested: 8 nM)
B13	no binding (tested: 8 nM)
B14	no binding (tested: 8 nM)
B15	no binding (tested: 8 nM)

target: T1, human PD-L2 Fc Chimera (R&D Systems, …); test: SPR
Protocol: (§1) One flow cell surface on each chip was activated and deactivated for use as blank during analyte injections. In the kinetic experiment, HBS-EP was used as running buffer and the flow rate was 50 μl/min. The analytes, i.e. the Z variants, were each diluted in HBS-EP buffer within a concentration range of 1000 to 0.01 nM and injected for 5 min, followed by dissociation in running buffer for 15-25 min. After dissociation, the surfaces were regenerated with one or two injections of 0.1% SDS. Kinetic constants were calculated from the sensorgrams using the Langmuir 1:1 model of BiaEvaluation software 4.1 (GE Healthcare).

Binder	binding result
B16	no binding (tested: 50 nM)
B17	no binding (tested: 50 nM)

target: T2, human B7-H3 Fc Chimera (R&D Systems, …); test: SPR
Protocol: as §1

Binder	binding result
B16	no binding (tested: 50 nM)
B17	no binding (tested: 50 nM)

target: T4, human PD-L1 Fc Chimera (R&D Systems, cat. no. 156-B7-100) (human, UniProt Q9NZQ7 19-239, biotinylated with Sulfo-NHS-LC-Biotin in ELISA and AlphaLISA; not biotinylated in SPR); test: SPR, hPD-L1 immobilized
T4 construct: bought; also called hPD-L1; biotinylated hPD-L1; not shown: Fc part of the bought Fc chimera, not described
Protocol: as §1

Binder	Kd [nM]	koff [s⁻¹]	kon [M⁻¹ s⁻¹]
B16	6.6	0.0092	1.4e+06
B17	6	0.012	2e+06

target: T4, human PD-L1 Fc Chimera (R&D Systems, …); test: ELISA titration, captured Z-ABD
Protocol: Half-area 96-well ELISA plates (Costar, cat. no. 3690) were coated at 4° C. overnight with 2 μg/ml of an anti-ABD goat antibody (produced in-house) diluted in coating buffer (50 mM sodium carbonate, pH 9.6; Sigma, cat. no. C3041). The antibody solution was poured off and the wells were washed in water and blocked with 100 μl of PBSC (PBS supplemented with 0.5% casein; Sigma, cat. no. C8654) for 1 to 3 h at RT. The blocking solution was discarded and 50 μl periplasmic solutions, diluted 1:1 with PBST 0.05%, were added to the wells and incubated for 1.5 to 2.5 h at RT under slow agitation. As a blank control, PBST 0.05% was added instead of a periplasmic sample. The supernatants were poured off and the wells were washed 4 times with PBST 0.05%. […] The plates were incubated for 1 h at RT followed by washes as described above. Streptavidin conjugated HRP (Thermo Scientific, cat. no. N100) diluted 1:30,000 in PBSC, was added to the wells and the plates were incubated for approximately 1 h. After washing as described above, 50 μl ImmunoPure TMB substrate (Thermo Scientific, cat. no. 34021) was added to the wells and the plates were treated according to the manufacturer's recommendations.

Binder	EC50 [nM]
B1	0.22
B4	0.11
B5	0.16
B6	0.24
B7	0.15
B8	0.32
B9	0.22
B10	0.4
B12	0.22
B15	0.25

target: T4, human PD-L1 Fc Chimera (R&D Systems, …); test: ELISA titration, captured Z-ABD; remark: another data set of the same source

Binder	EC50 [nM]
B9	0.12

target: T4, human PD-L1 Fc Chimera (R&D Systems, …); test: AlphaLISA, blocks hPD-L1 binding to hPD-1
Protocol: Finally, streptavidin coated Donor beads (Perkin Elmer, cat. no. 6772002) were added to a final concentration of 40 μg/ml and incubated for 30 min. All incubations were performed at RT in the dark. The plate was analyzed in the EnSpire instrument and the IC50 values were calculated using GraphPad Prism 5.

Binder	IC50 [nM]
B16	2.7
B17	4.2

target: T5, PD-L1 on PD-L1 expressing cells (IFNg-stimulated THP-1 cells; MDA-MB-231 cells) (UniProt Q9NZQ7 19-290, limits assumed); test: FACS, IFNg-stimulated THP-1 cells, 10 µg/ml, normalized to Z13091
T5 construct: whole, on cells
Protocol: Cells incubated with buffer alone were used as negative controls. […] Data from 10,000 cells were obtained using a FACS Calibur ([…]) and the data was analyzed using Flowing software 2.5.0 (Turku University). Mean fluorescence intensity (MFI) was used as a read out of binding capacity.

Binder	MFI (normalized)
B16	1.06
B17	0.71
